Test results from the supplement of paper PMC3334620.
Whole data set: some 33,000 sequences, median “E-score (-0.5 to 0.5)” near -0.016, cut for the highest 2% near 0.31. Some of the results follow.

What follows are sequences tested against Cst6 (UniProt P40535) (assay: PBM E-score (8-mer binding enrichment) (E-score (-0.5 to 0.5)); higher = stronger / more preferred TF binding; most listed sequences are background and not binding sites). Conditions: protein concentration: 200 nM; construct: GST-DNA-binding domain.
Method in brief: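 Yeast transcription factors, full-length or as DNA-binding domains, were expressed with a GST tag using PURExpress in vitro transcription/translation. At about 100-200 nM they were applied to universal all-10-mer Agilent arrays, double-stranded by primer extension on fresh or once-stripped slides. Fluorescent anti-GST detected bound protein, and masliner normalised the scans. E-scores for ungapped eight-base words, pooled with reverse complements, came from the Universal PBM Analysis Suite.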

Sequence	PBM E-score
ACCTTTCA	-0.116
GACGATCC	-0.00749
ACGCGGCG	0.363
CTATGGGA	-0.193
AAGTGCCC	-0.111
AAGAGCCT	-0.00834
ATGCTAAG	-0.0559
AACGTGTG	0.0429
CTCCAATC	-0.0848
GCCCAACC	-0.061
CAGACACG	-0.15
ATATTGTC	0.193
TCTTAAGA	0.0388
AAATCGGG	0.00053
ATATCTAA	0.0722
CTCGGAGA	-0.133
GTCAGATA	0.0313
ACGCTCAC	0.0778
GATACAGC	-0.0537
CTGATTGC	0.0225
ACTGCCGA	-0.0588
CACACAAC	0.0547
GCTACAGC	-0.0634
GATTGGCC	-0.165
AAACAGTT	0.0958

Sequence	PBM E-score
GCCCCCCA	-0.477
ACTTTTCT	0.0401
ATGCTGCA	-0.0817
AAGACTCA	-0.215
AGTTGCAA	0.1
ACGCACTC	0.163
AGTAGCAT	-0.0319
AAACTTGA	0.042
ACATACGC	-0.0406
AAATACTT	0.14
GGCGTAAC	-0.0656
ATGATACA	0.277
AACCCGCT	-0.28
ACTGAATA	0.197
AGAGACCA	-0.12
AACGACTA	0.108
TCCGGCAA	-0.0684
CGAGGTAA	-0.0574
CTTAGGTA	0.102
CAATCACG	0.0886
TGTAAGAA	0.288
AATAATGG	0.176
TAACTAGA	0.249
CGGTTATC	-0.0839
GGTAGATA	-0.0319

Sequence	PBM E-score
ATAAACAG	0.0792
ACATGAAC	0.0739
ATCACAGG	-0.00088
TGCTCCAA	0.0224
CCATAGGC	-0.218
ACGAGCTG	-0.0472
CAAGCGCA	0.0897
CTTCTGAC	0.095
AATTTCTG	0.142
GAGCATAA	0.125
AAATTTAA	0.242
ATACGTAG	0.186
GTTCTGCA	-0.0201
CCGTGCTA	-0.121
ACTCAGCC	-0.123
TCTCGTAA	0.305
GTATTCAC	0.149
CCCAGTCG	-0.268
ATGCTACG	0.0737
AAACGTAC	0.0107
ACCGGCGT	-0.089
TCGCTACA	-0.347
ATGAATGC	0.132
CTCATAAC	0.057
ATGACAAT	0.267

Sequence	PBM E-score
CGCCTCTC	-0.277
GAATGCTC	-0.205
CAGGCTGA	-0.108
CCACCAAC	-0.113
TAAAGACA	0.00445
CTCACCGC	-0.0709
GCACCCGC	0.0394
AGGGTGAT	0.152
CGAATCGC	0.005
AGTTAATA	0.216
AGACAGCT	-0.22
CTTGAGAC	-0.193
CATGACCG	0.0772
CACGAATG	0.0198
ACGCCTTC	-0.0283
AGACCTCT	-0.216
ATAGGTAA	0.0762
ACTGCACT	-0.0549
CGCAAAAC	0.231
CGAAGACC	-0.16
CTCTTAAG	-0.0771
AGTCGCCA	-0.329
ATCCCCGG	-0.282
CTTTGAGC	-0.225
ATGCCCAT	-0.156

Sequence	PBM E-score
ACTGCACA	-0.0951
CATCGTCG	-0.112
GGGAAGAA	-0.0773
ACACAAGG	0.0528
ATAGGTCG	-0.126
ATCCTGCG	-0.0914
TCCTTCCA	-0.178
CATTATTC	0.0584
CAGGGAGG	-0.181
CCACGACA	-0.172
ACGCTGGA	-0.0876
CTGTTATC	0.102
GATATTTA	0.138
CGTCAACC	0.377
TAGTTGCA	0.094
CAGAAGCG	0.0621
CGTGCGGC	0.321
GTTTTAAA	0.196
GCGGGTGA	0.207
GTGTCCAA	0.0765
GTAATTAC	0.287
ACCGTAGC	-0.17
ACCTCATG	0.116
GCCGCAGC	0.127
GGAGAATA	0.103

Sequence	PBM E-score
ATTGCAGG	0.0558
TTTACAAA	0.226
AGATGGTG	-0.236
ATTGAAAT	0.251
CCGGCGCG	-0.0219
TATGTAAA	0.303
ATCATCAG	0.259
AGTATCAA	0.213
CCGCTTCG	-0.195
CGGTTGGA	-0.166
AACAAGCA	-0.0992
CAACGCGA	-0.125
ACGGACGC	0.0161
ACCGCGCA	-0.096
GTTGGCCA	-0.132
GAACGAGA	-0.0792
CCACTACG	-0.0331
GGTGGGCA	-0.155
AAACGTCA	0.463
ATTCGGTC	0.148
GAGACAGA	0.0353
ACGCACGT	0.0305
ACGATAGA	-0.00516
CCATGTTC	-0.0334
AGATCCGG	-0.205

Sequence	PBM E-score
AAAAGAAT	0.216
GACGCGAA	0.0485
TACGACAA	0.0779
CGCGTACC	-0.0413
ACCACTCC	-0.256
ACAGGTAT	0.121
AGAAGATG	-0.0385
GTGCGAAC	-0.19
AGCCTTTA	0.0465
ATCGCGGA	-0.244
CTACAGTC	-0.134
ACATAACG	0.175
CCCCGTGC	0.0645
CCTTTATA	-0.0148
ATTTGCGA	0.186
CCTCCACG	-0.00565
AAGGGGAG	-0.344
CGGGTAGA	-0.172
CATCACCA	0.372
CTGCAGTA	-0.00258
TCTAAAAA	0.118
ACCTTTTC	-0.133
GTTTGACA	0.118
CCCGCCGC	0.126
TGAAAGAA	0.201

Sequence	PBM E-score
CGTCCCGA	-0.208
CCCTAGAA	-0.081
CAGAACGG	-0.0224
ACACGTAT	0.238
ACTGATCC	-0.0776
AACCACCC	-0.173
GACTATAA	0.0702
CTGAAACC	-0.0192
AAACAAAT	0.192
GCAAAACC	-0.128
AATCACAG	0.0637
CAATTACG	0.346
CTACCGAC	-0.13
GCCCAGCC	-0.179
AAAACGGT	-0.0645
ATTTTGAC	0.163
AGAATGTA	0.163
CCCGAACA	-0.14
GGTTGCAA	0.0302
AATAGCCC	-0.132
ATTGGTTA	0.22
CGGAAATA	0.155
AACTGCTT	-0.0903
ACGCCGCG	0.302
TACGCGGA	0.0461

Sequence	PBM E-score
CGAAATTC	0.00331
AAGTACCT	-0.196
ACGATCAC	0.144
ATGCTGGC	-0.173
CAGGATGC	-0.125
AGCTGTGC	-0.104
AAGCATGC	0.0597
GAAAAGAA	0.0954
AGGGCCGA	-0.224
CGGTAGCA	-0.189
ACGCGGCA	0.28
AAGTAAAT	0.214
CTGCTTTC	-0.0636
ATGGACAC	0.0741
ACTGAACA	0.178
GAGGATAA	-0.0994
TACACATA	0.159
AGGTAGCG	-0.155
AGGGCTGA	-0.161
AGCAAGAG	-0.0362
GCATATGC	0.00078
ACGCCGGC	0.0474
GCCTCGAC	-0.142
ACGTAAGG	0.347
ACAACCTG	-0.0213

Sequence	PBM E-score
ATAGATAT	0.238
ATACACCA	-0.0648
AGTGGGAG	-0.137
AGTGTCGC	-0.0178
ATTTGATA	0.249
AGCATACT	-0.0974
AGATCTAG	0.0255
CCATACTA	-0.0952
CTCGTACC	-0.205
TCTACGAA	-0.129
TCTGCAGA	-0.0548
ATTTTCCC	0.0136
CGACTAAG	-0.261
GGCACACC	-0.18
GTATTTAA	0.189
CACGATGG	-0.161
AATGCGAG	0.137
GCACCTAA	-0.00624
AGTCGGTG	-0.217
TATTAACA	0.15
AGAAGTGG	-0.0997
AACAATCT	-0.0115
AAGGTAAA	0.0394
ACCATTAT	0.0218
CGCGTCGC	-0.0598

Sequence	PBM E-score
TGACATAA	0.477
AACTTCTT	0.133
CATGTGAC	0.301
AACATAGA	0.0102
ACCGCAGG	-0.104
ACATGTAT	0.0876
CGCAAGCA	-0.0224
CGCCCTCA	-0.2
AGATGACC	0.0152
ATGAAGGC	-0.00363
CTTAACCA	0.157
TAAACGAA	0.13
ACGCGAAT	0.127
GGACTAGA	-0.12
TATATACA	0.161
ACCCGGCG	-0.271
AGCAGACT	0.0907
ACCCAAAA	0.107
CAAGGCAA	0.151
GGTACGTA	0.136
GCCTTCGC	-0.012
CGTGCGAA	0.161
CCATATCC	-0.153
AGGGCGAT	-0.0672
AATAACTG	0.0271

Sequence	PBM E-score
GCTCGAGC	0.115
ACAGGCTG	-0.261
ACGGGAAA	0.0463
GACAAGGC	-0.114
ATAGGTCA	0.165
AGGGGGTG	-0.442
CGCCTGAA	-0.0216
GAATTTAC	0.223
ACAATGAC	0.336
CTATTTCC	0.0532
CAGACTGA	-0.0699
CACACCCC	-0.294
ACATACGT	0.291
TGACAGCA	0.275
CACACTAG	-0.192
ACGACGTG	0.061
GGCTACAA	0.0135
ACGAATGA	0.268
CGACTTGA	-0.124
ACCAGTGA	0.0246
GAATTGAA	0.194
CTAGCCTC	-0.23
AATCGGAC	-0.132
CCACTGTA	0.043
ACTGAGCG	-0.0539

Sequence	PBM E-score
GGCGTGAA	-0.114
CAGCGGCA	0.0723
AAGTCCAC	-0.26
GCGTATCA	0.0408
ATGGTGGG	-0.217
CGCGCAGA	0.178
TACTTACA	0.165
TAATGAAA	0.261
AGGACATC	0.0339
CAGGCGAG	-0.261
AACTCCTC	-0.313
GCGGCATA	0.26
GTTCAAGA	0.0751
GCCTACCC	-0.231
ATCGGAAA	-0.0211
GCCCTACC	-0.0719
CCGCCGTC	0.206
ATGGAGCA	0.0798
ACCAACGG	-0.141
AGCGGTTG	-0.0171
CGGCAGAC	-0.212
AGCAGGGG	-0.367
ATGGTGCC	-0.0511
CCCCGCCA	-0.0416
AGTATGCG	-0.0706

Sequence	PBM E-score
CAGTTATG	0.00312
AGGCGTCG	0.0103
GCACCCGA	-0.13
AAATAATA	0.287
AACGTGCT	-0.122
AGACTTAT	-0.0263
AACTCTCG	-0.0849
TGTGCTAA	0.137
GGACTTTA	-0.159
AACCTTAG	-0.158
GGACCCGA	-0.287
GTGACAAA	0.186
TAAATACA	0.111
TCGTGAAA	-0.0522
AATTTTGT	0.173
AGCACGAC	-0.263
AATTCAGC	-0.0332
ATCCTGGC	-0.234
CACAGTCC	-0.153
